Among all 280,000 compounds or so, about 100 (0.036%) were called active. The inconclusive results got no clear call from the source; some entries with a clear call stand among them for comparison. The call rests on the fitted dose curve; in most records, active means well fitted inhibition curve with a large enough effect in the signal ratio, with a control signal flat (not every such curve was filed as active); inconclusive means small, poorly fitted or top-dose-only effect, or effect the other way, or a change in a side signal; inactive means no such curve, though single readings can be large or run the other way; the % refers to the signal ratio. Where the call is inconclusive, the potency comes from a doubtful curve fit. “Side channel” marks fits to a control or component signal instead of the main read-out.
What follows are molecules tested against Muscleblind-like protein 1 (Homo sapiens) (UniProt Q9NR56) (assay: qHTS Assay for Inhibitors of MBNL1-poly(CUG) RNA binding). Settings: TR-FRET MBNL1-His/biotin-(CUG)12 binding, 665/545 ratio; series mostly up to 57.5 µM.
Outline: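 Ratiometric TR-FRET (665 over 545 nm, excitation 340 nm) tracks disruption of MBNL1-His/biotin-(CUG)12 complex after 60 min at room temperature, with compounds at 92 nM to 58 uM final.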
Potency means the concentration at half of the fitted maximal effect; tags describe the fitted curve by direction and shape or compound fluorescence and quenching.

Sequence of UniProt Q9NR56 (Q9NR56 whole entry, looked up): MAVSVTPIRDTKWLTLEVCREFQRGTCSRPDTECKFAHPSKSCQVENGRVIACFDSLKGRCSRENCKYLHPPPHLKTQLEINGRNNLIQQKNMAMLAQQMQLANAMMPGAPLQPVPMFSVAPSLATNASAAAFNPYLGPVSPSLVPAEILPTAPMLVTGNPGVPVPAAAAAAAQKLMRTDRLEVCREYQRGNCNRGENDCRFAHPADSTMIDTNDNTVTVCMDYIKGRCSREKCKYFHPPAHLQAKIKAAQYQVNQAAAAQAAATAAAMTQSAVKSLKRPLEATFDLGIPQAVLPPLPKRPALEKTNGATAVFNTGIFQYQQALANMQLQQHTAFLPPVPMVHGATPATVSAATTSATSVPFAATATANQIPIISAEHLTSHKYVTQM

Row | Structure (SMILES) | Potency
1 | COc1cc([N+](=O)[O-])ccc1NC(=O)NNC(=O)CCc1ccccc1 | inconclusive: 20 µM [quencher, side channel, partial curve]
2 | CCCNC(=O)C(Cc1ccccc1)NS(=O)(=O)c1cccc2nsnc12 (centres undefined) | inconclusive: 8.91 µM [quencher, side channel, partial curve]
3 | c1ccc(OCc2nnc3n2N=C(c2ccccc2)CS3)cc1 | inactive
4 | COc1cc(/C=C2\SC(=S)N(NC(=O)c3ccc(O)cc3)C2=O)ccc1O | inconclusive: 15.8 µM [quencher, side channel, partial curve]
5 | COc1ccc(-n2nc(C(=O)NCC(=O)NCCCN3CC(C)CC(C)C3)c3ccccc3c2=O)cc1Cl (centres undefined) | inconclusive: 15.8 µM [quencher, side channel, partial curve]
6 | CC(C)C(c1nnnn1C1CCCCC1)N1CCc2ccccc2C1 (centres undefined) | inconclusive: 0.501 µM [quencher, side channel, full curve]
7 | Cc1ccc(-n2cc(S(=O)(=O)c3ccc(C)cc3)[nH]c2=O)cc1 | inactive
8 | Cc1onc(-c2ccccc2)c1-c1nc2ccccc2c(=O)o1 | inactive
9 | CCOc1ccc(NC(=O)c2ccc3nccnc3c2)cc1 | inconclusive: 8.91 µM [quencher, side channel, partial curve]
10 | CCC(Sc1nc2cc3c(cc2c(=O)n1Cc1ccco1)OCO3)C(=O)Nc1cccc(OC)c1 (centres undefined) | inactive
11 | CCc1ccc2oc(-c3ccc(OC)cc3)cc(=Nc3c(C)n(C)n(-c4ccccc4)c3=O)c2c1 | inconclusive: 20 µM [quencher, side channel, single point]
12 | O=C(Nc1ccc(Cc2ccncc2)cc1)c1ccc(N2CCOCC2)c([N+](=O)[O-])c1 | inconclusive: 28.2 µM [quencher, side channel, partial curve]
13 | CCN(CC)C(=O)CSc1nnc2nnc3cc(Cl)ccc3n12 | inconclusive: 7.94 µM [quencher, side channel, partial curve]
14 | CN1C(=O)c2cccc(N(C)C)c2C1=O | inconclusive: 17.8 µM [quencher, side channel, single point]
15 | O=C(c1ccc([N+](=O)[O-])cc1[N+](=O)[O-])n1cnc2ccccc21 | inconclusive: 7.08 µM [quencher, side channel, partial curve]
16 | Cn1ncc([N+](=O)[O-])c1C(=O)Nc1ccc2c(c1)OCCO2 | inconclusive: 17.8 µM [quencher, side channel, partial curve]
17 | Cc1ccc(Oc2ccccc2/C=C/C(=O)O)cc1 | inconclusive: 8.91 µM [quencher, side channel, single point]
18 | O=C(COc1ccc(=O)n(-c2ccccc2)n1)Nc1ccccc1 | inconclusive: 28.2 µM [quencher, side channel, single point]
19 | COc1ccc(NC(=O)c2sccc2-n2cccc2)cc1 | inactive
20 | COCCCN1C(=O)c2ccc(C(=O)Nc3ccc(OC)cc3)cc2C1=O | inconclusive: 3.55 µM [quencher, side channel, full curve]

Row | Structure (SMILES) | Potency
21 | CCCONC(=O)Nc1ccccc1[N+](=O)[O-] | inconclusive: 12.6 µM [activator, single point]
22 | O=[N+]([O-])c1cccc(S(=O)(=O)Nc2ccc(Cc3ccncc3)cc2)c1 | inconclusive: 10 µM [quencher, side channel, partial curve]
23 | COc1ccccc1CNC(=O)Cc1ccc(C)cc1 | inactive
24 | O=C(N/N=C/c1ccc[nH]1)c1c[nH]c2ccccc12 | inconclusive: 17.8 µM [quencher, side channel, partial curve]
25 | O=C(CSCc1ccc([N+](=O)[O-])cc1)Nc1cccc(C(=O)Nc2ccccc2C(=O)O)c1 | inconclusive: 39.8 µM [quencher, single point]
26 | CCCCSc1nc(NCc2ccco2)c2c3c(sc2n1)COC(C)(C)C3 | inactive
27 | COc1ccc2cc(C(=O)N/N=C/c3cc(OC)c(OC)c(OC)c3)[nH]c2c1 | inconclusive: 31.6 µM [quencher, side channel, single point]
28 | CN(C)c1ccc(/C=C2\N=C(C(C)(C)C)OC2=O)cc1 | inactive
29 | COc1ccc(OCCCC(=O)Nc2cccc(C(C)=O)c2)cc1 | inconclusive: 794 µM [inhibitor, partial curve, poor fit]
30 | Cc1c(-c2ccnc3cc(C(=O)O)nn23)cnn1C | inconclusive: 28.2 µM [quencher, side channel, partial curve]
31 | Cc1c(C(=O)NCCC2=CCCCC2)oc2ccc(S(=O)(=O)N3CCC4(CC3)OCCO4)cc12 | inactive
32 | O=C(c1cc([N+](=O)[O-])cc([N+](=O)[O-])c1)N1CCN(C(=O)c2ccco2)CC1 | inconclusive: 10 µM [quencher, partial curve]
33 | CN(C)c1ccc(C=NC(CO)C(O)c2ccc([N+](=O)[O-])cc2)cc1 (centres undefined) | inconclusive: 35.5 µM [quencher, side channel, single point]
34 | O=C(NC(=S)Nc1c(Cl)ccc2nsnc12)c1ccccc1F | inconclusive: 7.08 µM [quencher, side channel, full curve]
35 | COCCCNC(=S)Nc1ccc(C)cc1[N+](=O)[O-] | inconclusive: 0.251 µM [quencher, side channel, full curve]
36 | CCCc1cc(C(=O)NC2CCCC2)no1 | inconclusive: 5.62 µM [quencher, side channel, single point]
37 | CCOc1ccc(Nc2ccc(C(=O)O)cc2[N+](=O)[O-])cc1 | inconclusive: 14.1 µM [quencher, side channel, partial curve]
38 | CCCN(CCC)S(=O)(=O)c1ccc(Cl)c([N+](=O)[O-])c1 | inconclusive: 17.8 µM [quencher, side channel, partial curve]
39 | O=C1c2cccc3c(N4CCCCC4)ccc(c23)C(=O)N1c1ccccc1O | inconclusive: 11.2 µM [quencher, side channel, partial curve]

From PubChem BioAssay AID2675 (National Center for Advancing Translational Sciences (NCATS), 2010)
